# Reference: patent publication US10517292B2 (priority 2015, dated 2019)
# Conditions: absorbed on shell pieces, under air in the light; appearance of hexadecenoic acid by oxidation; FIG. 2
# Description: A paintball projectile shell consisting of an oxo-biodegradable polyolefin is cut into small pieces of the order of 2 to 5 mm^2. The pieces thus obtained are placed in a reactor containing a magnetic stirrer. The reactor is placed under nitrogen.
# 100 mg of the hexadecenal mixture described above is added to the pieces and stirring is maintained until the liquid has been completely absorbed by the pieces.
# The pieces are then separated in two portions:
# The first half is stored in an aluminum foil pouch, under nitrogen (control). The second half is placed in a closed transparent cup under air in the light. Pieces are regularly analyzed by gas chromatography. Changes in the pheromonal mixture are reported in the following graph (FIG. 2): […]
substance,measurement,value
Z and E-11 hexadecenal [pheromone mixture],Stability of the pheromone mixture in direct contact with oxo-biodegradable polyolefin,decomposes
